Assay results: PubChem BioAssay AID1645887 (National Center for Advancing Translational Sciences (NCATS), 2021)
Where “and” joins values, the source holds several entries; their conditions need not be identical. Equal values may be shown once. The whole screen tested about 16,000 compounds, of which about 40 (0.2%) were called active. Not shown: some 1% with an inconclusive outcome. The call rests on the fitted dose curve; in most records, active means well fitted activation curve with a large enough effect; inconclusive means small, poorly fitted or top-dose-only effect, or another doubt; inactive means no such curve, though single readings can be large or run the other way. This is one part of the list.

Biological target: Rap guanine nucleotide exchange factor 4 (Homo sapiens) (UniProt Q8WZA2)
UniProt Q8WZA2, sequence (Q8WZA2 whole entry, looked up): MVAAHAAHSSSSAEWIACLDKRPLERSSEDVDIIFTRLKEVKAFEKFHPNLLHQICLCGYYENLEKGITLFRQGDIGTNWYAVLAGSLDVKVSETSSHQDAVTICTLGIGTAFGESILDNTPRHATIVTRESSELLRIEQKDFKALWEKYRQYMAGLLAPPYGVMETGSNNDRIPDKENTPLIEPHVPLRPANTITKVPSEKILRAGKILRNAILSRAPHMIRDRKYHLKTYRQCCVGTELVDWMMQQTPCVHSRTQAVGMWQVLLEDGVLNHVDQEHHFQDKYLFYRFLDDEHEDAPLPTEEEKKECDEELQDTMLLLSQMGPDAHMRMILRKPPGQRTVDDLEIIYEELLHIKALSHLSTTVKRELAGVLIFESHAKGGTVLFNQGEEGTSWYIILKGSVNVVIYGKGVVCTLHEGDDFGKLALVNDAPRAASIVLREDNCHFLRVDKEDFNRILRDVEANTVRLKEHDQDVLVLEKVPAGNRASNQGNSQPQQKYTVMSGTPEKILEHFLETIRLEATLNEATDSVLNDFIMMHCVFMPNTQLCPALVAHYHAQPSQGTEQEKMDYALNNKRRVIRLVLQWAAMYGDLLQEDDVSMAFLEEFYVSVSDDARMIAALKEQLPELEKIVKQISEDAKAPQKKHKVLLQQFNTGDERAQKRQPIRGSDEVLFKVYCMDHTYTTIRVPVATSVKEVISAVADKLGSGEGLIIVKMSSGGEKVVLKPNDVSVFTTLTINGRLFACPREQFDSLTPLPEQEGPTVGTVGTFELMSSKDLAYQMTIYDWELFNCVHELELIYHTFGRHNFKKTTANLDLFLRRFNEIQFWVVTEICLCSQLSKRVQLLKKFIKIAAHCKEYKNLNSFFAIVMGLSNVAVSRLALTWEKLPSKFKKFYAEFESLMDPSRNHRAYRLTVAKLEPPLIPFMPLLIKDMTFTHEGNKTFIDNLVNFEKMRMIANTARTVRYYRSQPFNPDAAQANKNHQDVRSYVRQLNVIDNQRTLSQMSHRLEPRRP
Test: Validation qHTS for agonist of cAMP-regulated guanine nucleotide exchange factor 4 (EPAC2);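 further: exchange makes BODIPY-GDP fluorescence drop when released from Rap1B; series mostly up to about 150 µM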
Settings: EPAC2 Rap1B BODIPY-GDP exchange, fluorescence; activation: stronger effect = higher value
Procedure, shortened: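 Signal normalized against 6.5 mM cAMP as agonist control. Mix of EPAC2 (100 nM), RAP1B-BODIPY-GDP (250 nM) and GDP (50 uM) was read kinetically at 480/540 nm, every 5 min over 30 min, after 5 min room-temperature incubation with compound.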
On the % scale 0 is the no-effect control and ±100 the full control effect.

activation, inactive:
CC(C)c1nc(N(C)S(C)(=O)=O)nc(-c2ccc(F)cc2)c1/C=C/C(O)CC(O)CC(=O)O (centres undefined) -23%, COCCn1c(=O)c(-c2ccccc2)nc2cnc(N(C)C)nc21 -10.1%, CCOC(=O)c1cnc2c(cnn2CC)c1NN=C(C)C -5.98% and 2.68% and -65.4%, COc1ccc(-n2c(=O)c(-c3cc(F)cc(F)c3)nc3cnc(N4CCNCC4)nc32)cc1 -11.3%, C[C@@H]1C[C@H]2[C@@H]3CCC4=CC(=O)C=C[C@]4(C)[C@@]3(Cl)[C@@H](O)C[C@]2(C)[C@@]1(OC(=O)c1ccco1)C(=O)CCl -7.91%, CN1CCCN(C(c2ccccc2)c2ccc(Cl)cc2)CC1 (centres undefined) -12.1%, CCOC(=O)[C@H](CCc1ccccc1)N[C@@H](C)C(=O)N1C(=O)N(C)C[C@H]1C(=O)O 7.08%, O=C(O)c1cc2cc(Cc3cccnc3)ccc2o1 4.38% and -20%, CCCCNC(=O)[C@@H]1CC=C[C@@H]2CCN(CCCC)C(=O)[C@@H]21 0.476%, COCCNC(=O)COc1ccc(OCCNC[C@@H](O)COc2ccccc2)cc1 -8.03%, CCC1COCCS(=O)(=O)N1Cc1ccccc1F (centres undefined) -2.86%, CC(=O)NCCNc1nc(-c2ccccc2C)nc2ccccc12 -11.4%, COCC(=O)Nc1cc(C(=O)N2CC3(C)CC2CC(C)(C)C3)c2c(c1)nc(-c1ccncc1)n2C (centres undefined) -3.54%, CC(C)(C)c1ccc(C(=O)C[n+]2cccc(Br)c2)cc1 -17.8%, Cc1ccc2c(c1)CN(CCNC(=O)c1cccc(Cn3cccn3)c1)CC(C)O2 (centres undefined) 0.542%, O=C(c1cnccn1)N1CCC[C@@]2(CCN(c3cccc(-c4ccccc4)c3)C2)C1 7.39%, COCCn1c(=O)c(-c2ccccc2)nc2cnc(OC)nc21 -6.49%, Cn1nc(C(=O)NCCN2Cc3ccccc3OC(c3ccsc3)C2)c2ccccc2c1=O (centres undefined) -22.2%, OC1(c2cccnc2)CCN(Cc2ccc3c(c2)CN(Cc2cccc(C(F)(F)F)c2)CCO3)CC1 0.187%, O=C1[C@H](Cc2ccccc2)NCCCC[C@H](c2ccc(Cl)cc2)N1Cc1ccc(Cl)cc1 -8.99%, O=C(Nc1ccc(Cl)cc1Cl)[C@@H]1CC=C[C@@H]2CCN(C3CC3)C(=O)[C@@H]21 -11.6%, O=C(c1cccc(F)c1F)N1CCOc2ccc(CN3CCC(Oc4cccnc4)CC3)cc2C1 1.29%, O=C(c1cccc(F)c1)N1CCC2(CC1)CN(c1ccccc1)C2 4.44%, COCC(=O)N1CCC2(CC1)CN(c1ccccc1)C2 0.597%, C=C1c2cccc(O)c2C(O)=C2C(=O)[C@]3(O)C(O)=C(C(N)=O)C(=O)[C@@H](N(C)C)[C@@H]3[C@@H](O)[C@H]12 -19%, N#C/C(=C\c1ccc(O)c(O)c1)C(=O)NCCCc1ccccc1 -4.79% and -22.4%, Cc1ncoc1C(=O)N1CCOc2ccc(CN3CCC(Oc4cccnc4)CC3)cc2C1 5.67%, CCCCCCCCCCCCCCCC(=O)O -24.9%, C/C(=C\C(=O)OCCCCCCCCC(=O)O)C[C@@H]1OC[C@H](C[C@@H]2O[C@H]2[C@@H](C)[C@H](C)O)[C@@H](O)[C@H]1O -40.2%, COc1cc(=O)n2c(c1C(=O)NCc1ccco1)CCN(Cc1ccc3nsnc3c1)CC2 -6.46%, O=S(=O)(c1ccccc1)N1CCC[C@@]2(CCN(c3ccncc3)C2)C1 -15.5%, CC1O[C@@H](O[C@H]2C(Oc3cc(O)c4c(=O)cc(-c5ccc(O)cc5)oc4c3)OC(CO)C(O)C2O)C(O)C(O)C1O (some centres undefined) -12.8%, COc1ncc2nc(C)c(=O)n(C)c2n1 -14.9%, CNc1ncnc2ccc(-c3ccccc3C)cc12 -13.7%, C=C[C@](C)(O)CCC1C(=C)CCC2[C@@](C)(CO)CCC[C@@]12C (some centres undefined) -4.04%, CN(CC(=O)O)c1ccc(/C=C2\C=Cc3ccccc32)cc1 -34.3% and -20.3%, CC(=O)OC[C@@]1(O)C[C@]23CCC4c5ccoc5CC[C@@]4(C)C2CCC1C3 (some centres undefined) -0.679%, N#Cc1cccc(-c2nc3cnc(Oc4cccc(Cl)c4)nc3n(C3CC3)c2=O)c1 -1.67%, Cc1nc(NCc2c(C)nn(C)c2Cl)sc1-c1ccn(CC2COc3ccccc3O2)n1 (centres undefined) -3.69%, CCOc1ccc(C(=O)OCCN(CC)CC)cc1 7.23%, CC1CCN=C(N)S1 (centres undefined) -12.7%, COC(=O)N1CCC[C@@]2(CCN(C(c3ccccc3)c3ccccc3)C2)C1 1.4%, COCC(=O)N1CCC[C@@]2(CCN(c3ccccc3)C2)C1 -1.76%, CCc1cccc(CC)c1NC(=O)CN(CC(=O)O)CC(=O)O 6.97%, C[N+]1(C)[C@@H]2CC(OC(=O)C(O)(c3cccs3)c3cccs3)C[C@H]1[C@@H]1O[C@@H]12 (some centres undefined) -4.41%, O=c1cc(-c2ccc(O)c(O)c2)oc2ccccc12 -8.93%, O=C(O)c1cc(N(Cc2ccccc2O)Cc2cc(O)ccc2O)ccc1O -7.63%, CC1(C)CC2C1CC[C@]1(C)CCC3C(C(=O)O)CC(=O)O[C@]32C1 (some centres undefined) -41.4%, COc1ccccc1CCn1c(=O)c(C)nc2cncnc21 -8.32%, COc1ccc(-n2c(=O)c(-c3ccc(F)cc3)nc3cncnc32)cc1 0.968%, CC(=O)C[C@H]1c2ccccc2S(=O)(=O)N1c1ccccc1 -31.8%, C[C@]12CCC(=O)C=C1[C@@H]1C[C@@H]1[C@H]1[C@@H]3[C@@H]4C[C@@H]4[C@@]4(CCC(=O)O4)[C@@]3(C)CC[C@@H]12 -16.5%, N#Cc1cccc(-c2cc(NCc3ccccc3)ncn2)c1 -18.3%, C=C(C)[C@H]1CC=C(C)C(=O)C1 -9.52%, Cc1noc(C)c1-c1ccc2ncnc(NC3CCNCC3)c2c1 -11.5%, COc1ccc(C(=O)N2CCC3(CCN(Cc4nccs4)CC3)CC2)cc1 -25%, COc1ccc2cc([C@H](C)C(=O)O)ccc2c1 -10.7% and -16.8%, NC(=O)[C@@H]1CCCN1C(=O)CC1(c2cccc(F)c2)CC(=O)N(C2CCCC2)C1=O (some centres undefined) -7.13%, O=C(O)/C=C1\CCCc2ccccc2C1O (centres undefined) 7.94%, COc1cc(OC)cc(C(=O)N2CCCC(n3cc(C(=O)NCC(C)C)nn3)C2)c1 (centres undefined) 3.88%, O=C(O)[C@H]1CCCNC1 -19.5%, CS(=O)(=O)Nc1c(O)ccc2c1CCCC2C1=NCCN1 (centres undefined) -8.01%, COCCNc1ncnc2ccc(-c3ccoc3)cc12 -5.98%, CCC1(C2CCN(C(=O)c3ccccc3C)CC2)NC(=O)N(CCc2scnc2C)C1=O (centres undefined) -8.35%, NC(CS)C(=O)O (centres undefined) -11.2%, O=C(c1csnn1)N1CCC[C@@]2(CCN(c3cccc(-c4ccccc4)c3)C2)C1 -10.8%, C[C@]12CCC(=O)C=C1CC[C@@H]1[C@H]2[C@@H](O)C[C@@]2(C)[C@H]1CC[C@]2(O)C(=O)CO 16.3%, CO[C@H]1[C@H](NC(=O)c2ccsc2)c2ccccc2C12CCN(Cc1ccc3c(c1)OCO3)CC2 7.62%, CN1CCN(CCC=C2c3ccccc3Sc3ccc(S(=O)(=O)N(C)C)cc32)CC1 19.4% and -23%, CC(=O)NCCNc1nc(-c2cccc(C#N)c2)nc2ccccc12 1.32%, CCOC(=O)C[C@H]1c2ccccc2S(=O)(=O)N1C1CC1 -16%, CC1=C(/C=C/C(C)=C/C=C/C(C)=C\CO)C(C)(C)CCC1 -4.5%, Cc1cc[n+](CCC2CCCCC2)c2ccccc12 -27.5%, O=C(NC1CCCC1)c1cn(C2CCCN(Cc3ccc4c(c3)OCCO4)C2)nn1 (centres undefined) -1.47%, O=c1c2ccccc2oc2ccc(Oc3ccccc3)cc12 -2.6%, CC(C)C[C@H](NC(=O)N1CCCCCC1)C(=O)N[C@H](Cc1cn(C)c2ccccc12)C(=O)N[C@H](Cc1ccccn1)C(=O)O -10.3%, NC(=Nc1ccccc1)NC(=O)c1nc(Cl)c(N)nc1N -15% and -5.94% and -15.1%, Clc1ccc(-n2cccc2CN2CCc3nnc(Cc4ccccc4)n3CC2)nc1 5.14%, O=C(O)c1ccccc1OP(=O)(O)O -6.18%, O=S(=O)(c1ccccc1)N1CCC2(CC1)CN(c1ncccn1)C2 2.23%, OC1(c2ccc(Cl)cc2)CCN(Cc2c[nH]c3ccccc23)CC1 6.86% and 0.638% and -14.5%, COC(=O)c1c(C)cc(OC(=O)c2c(C)cc(O)c(C=O)c2O)c(C)c1O -18.3%, C/C=C(/C(=C/C)c1ccc(O)cc1)c1ccc(O)cc1 -5.1% and 9.06%, COc1ccccc1CN1CC2(CCN(S(=O)(=O)c3ccccc3)CC2)C1 -6.34%
